These results are taken from ChEMBL document CHEMBL1201862, “PubChem BioAssay data set” (2004).

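96-well plates; 48 h exposure; 5 concentrations. Endpoints by linear interpolation between flanking doses. Not reached: highest tested concentration assigned. The concentration for 50% growth inhibition is given as GI50.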 Activity calls are given as the source filed them. Cut-off read from the data, not from the text of the source: active = GI50 up to about 1.1 µM and inactive = higher. Numbered stars: 1 amine (or outer) side, 2 acyl side, 3 side chain; on linkers, the order of the positions; unused ones are H or OH. Bridge positions count the residues as written; N and C are the ends. Square brackets hold non-standard residues; d marks the D form. Peptide text beside a SMILES is read from it. * marks the point of attachment. ξ: configuration not given here. X32 = CC[C@H](C)[C@@H](N[*:1])[C@@H](O)CC(=O)O[C@H](C(=O)[C@H](C)C(=O)[*:2])C(C)C; X30 = CCC(C)C(N[*:1])C(O)CC(=O)O[C@H](C(=O)C(C)C(=O)[*:2])C(C)C; Phe(F5) = N[CH](Cc1c(F)c(F)c(F)c(F)c1F)C(=O)O; X29 = O=C([C@@H]1CC(O)CN1[*:1])[*:2]; X31 = O=C(C(CCCCNO[*:3])N[*:1])[*:2]; 2Nal = N[CH](Cc1ccc2ccccc2c1)C(=O)O; Fmoc = O=C(OCC1c2ccccc2-c2ccccc21)*; NMeY = CN[C@@H](Cc1ccc(O)cc1)C(=O)O; ξW = NC(Cc1c[nH]c2ccccc12)C(=O)O; X26 = O=C(O)[C@H]1CCC[C@H]1N*; Pen = CC(C)(S)[C@H](N)C(=O)O; ξ2Thi = NC(Cc1cccs1)C(=O)O; ξNMeL = CNC(CC(C)C)C(=O)O; ξR = N=C(N)NCCCC(N)C(=O)O; ΔPro = O=C(O)[CH]1C=CCN1; ξF = NC(Cc1ccccc1)C(=O)O; Cbz = O=C(OCc1ccccc1)*; Dab = NCC[CH](N)C(=O)O; Boc = CC(C)(C)OC(=O)*; ξI = CCC(C)C(N)C(=O)O; ξL = CC(C)CC(N)C(=O)O; Aib = CC(C)(N)C(=O)O; ξK = NCCCCC(N)C(=O)O; ξT = CC(O)C(N)C(=O)O; OBn = c1ccc(CO*)cc1; Bn = c1ccc(C*)cc1; OtBu = CC(C)(C)O*; βAla = NCCC(=O)O; ξA = CC(N)C(=O)O; tBu = CC(C)(C)*; CH2Cl = ClC* Bounds are passed on as bounds.

This assay has as its system NCI-H322M. Nature of the assay: NCI tumour cell line growth inhibition, 48 h.
Consider `CNC(=O)C1CCCCNC(=O)CCC(NC(=O)OCc2ccccc2)C(=O)N1` (stereo not drawn) (Cbz-Glu-Lys-NHMe; lactam 1-2; configuration not given here), for which the GI50 was inactive: > 100 µM.
Consider `COC(=O)C1CCCCNC(=O)CCC(NC(=O)OCc2ccccc2)C(=O)N1` (stereo not drawn) (Cbz-Glu-Lys-OMe; lactam 1-2; configuration not given here), for which the GI50 is inactive: > 100 µM.
Turning to `CC(C)CC(NC(=O)OCc1ccccc1)C(=O)NC(Cc1ccccc1)C(=O)CCl` (stereo not drawn) (Cbz-Leu-Phe-CH2Cl; configuration not given here), the GI50 is inactive: 28.8 µM.
Turning to `CCOC(=O)CCC(NC(=O)C(Cc1ccccc1)NC(=O)OCc1ccccc1)C(=O)OCC` (stereo not drawn) (Cbz-Phe-Glu(OEt)-OEt; configuration not given here), the GI50 is inactive: 17.5 µM.
Regarding `COC(=O)C(Cc1ccc(O)cc1)NC(=O)C(COCc1ccccc1)NC(=O)OCc1ccccc1` (stereo not given) (Cbz-Ser(Bn)-Tyr-OMe; configuration not given here), the GI50 is inactive: 20 µM.
As to `CCOC(=O)CNC(=O)C(C)NC(=O)C(NC(=O)OCc1ccccc1)C(C)C` (stereo not drawn) (Cbz-Val-Ala-Gly-OEt; configuration not given here), the GI50 is inactive: > 100 µM.
Consider `CC(NC(=O)C(NC(=O)OCc1ccccc1)C(C)C)C(=O)NCC(=O)O` (stereo not drawn) (Cbz-Val-Ala-Gly-OH; configuration not given here), for which the GI50 is inactive: > 100 µM.
For `CC(C)CC1NC(=O)C(Cc2ccccc2)NC(=O)C(Cc2ccccc2)NC(=O)C(NC(=O)C(Cc2ccc(OCc3ccccc3)cc2)NC(=O)OCc2ccccc2)CCNC1=O` (stereo not given) (Cbz-Y(Bn)[Dab]FFL; lactam 2-C; configuration not given here), the GI50 is inactive: > 100 µM.
With `NC(=O)CNC(=O)C1CCCN1C(=O)C1CCCCNOC(=O)CCC(NC(=O)OCC2c3ccccc3-c3ccccc32)C(=O)NC(Cc2c[nH]c3ccccc23)C(=O)N1` (stereo not given) (Fmoc-EW[X31]PG-NH2; ester 1-3; configuration not given here), the GI50 was inactive: > 100 µM.
Then `CC(C)(C)OC(=O)NCCCCC(NC(=O)OCC1c2ccccc2-c2ccccc21)C(=O)N1CCCC1C(=O)NCC(N)=O` (stereo not drawn) (Fmoc-Lys(Boc)-Pro-Gly-NH2; configuration not given here), with inactive: > 100 µM; and `CC(OC(C)(C)C)C(NC(=O)OCC1c2ccccc2-c2ccccc21)C(=O)NC(Cc1ccccc1)C(=O)OCc1ccccc1` (stereo not given) (Fmoc-Thr(tBu)-Phe-OBn; configuration not given here), with inactive: > 100 µM.
In the case of `CC(C)(C)OC(=O)NCCCCC(NC(=O)C(Cc1c[nH]c2ccccc12)NC(=O)OCC1c2ccccc2-c2ccccc21)C(=O)O` (stereo not given) (Fmoc-Trp-Lys(Boc)-OH; configuration not given here), the GI50 is inactive: 32.2 µM.
As to `CC(C)C(NC(=O)OCC1c2ccccc2-c2ccccc21)C(=O)NC(CCC(=O)OC(C)(C)C)C(=O)OC(C)(C)C` (stereo not given) (Fmoc-Val-Glu(OtBu)-OtBu; configuration not given here), the GI50 is inactive: > 100 µM.
Consider `COC(=O)C1CCC(=O)NCCCCC(NC(=O)C(N)CC(=O)O)C(=O)N1` (stereo not drawn) (H-Asp-Lys-Glu-OMe; lactam 2-3; configuration not given here), for which the GI50 was inactive: > 100 µM.
Take `CC1(C)NC(=O)C(NC(=O)C(N)CC(=O)O)CCCCNC(=O)CCNC1=O` (stereo not given) (H-DK[Aib][βAla]; lactam 2-C; configuration not given here): the GI50 is inactive: > 100 µM.
Then `CC(NC(=O)C(N)Cc1ccccc1)C(=O)NC(Cc1ccc(O)cc1)C(=O)NC(Cc1c[nH]c2ccccc12)C(=O)NC(CCCCN)C(=O)NC(C(=O)NC(C)C(=O)NC(Cc1ccc2ccccc2c1)C(N)=O)C(C)C` (stereo not given) (H-FAYWKVA[2Nal]-NH2; configuration not given here), with inactive: > 12.5 µM; and `CCC(C)C(NC(=O)C(NC(=O)C(CC(N)=O)NC(=O)CN)C(C)O)C(=O)NC(C(=O)NC(C)C(=O)NC(C(=O)NC(CCC(=O)O)C(=O)NC(CC(C)C)C(=O)NC(CC(=O)O)C(=O)NC(C(=O)NC(Cc1ccc(O)cc1)C(=O)N1CCCC1C(=O)O)C(C)O)C(C)C)C(C)C` (stereo not given) (H-GNTIVAVELDTYP-OH; configuration not given here), with inactive: > 50 µM.
With `CC(OC(C)(C)C)C(NC(=O)C(N)CCCCNC(=O)OC(C)(C)C)C(=O)NC(Cc1ccccc1)C(=O)O` (stereo not given) (H-Lys(Boc)-Thr(tBu)-Phe-OH; configuration not given here), the GI50 was inactive: > 100 µM.
Turning to `CSCC[C@H](NC(=O)C(CC(C)C)NC(=O)[C@H](Cc1c[nH]cn1)NC(=O)CNC(=O)[C@@H](NC(=O)[C@@H](C)NC(=O)[C@H](Cc1c[nH]c2ccccc12)NC(=O)[C@H](CCC(N)=O)NC(=O)[C@@H](N)CC(N)=O)C(C)(C)SC)C(N)=O` (stereo not given in full) (H-NQW[dA][Pen](Me)GH[ξL]M-NH2), the GI50 was inactive: > 100 µM.
`CCC(C)C1NC(=O)C(NC(=O)C(CC(C)C)N(C)C(=O)[C@@H]2CCCN2)C(C)OC(=O)[C@H](Cc2ccc(OC)cc2)N(C)C(=O)[C@@H]2CCCN2C(=O)[C@H](CC(C)C)NC(=O)C(C)C(=O)[C@H](C(C)C)OC(=O)CC1O` (stereo not given in full) (H-P[ξNMeL][ξT][X30]LP[NMeY](Me); ester 3-C): the GI50 was active: 0.00103 µM.
With `CC[C@H](C)[C@H]1NC(=O)[C@@H](N)[C@@H](C)OC(=O)[C@H](Cc2ccc(OC)cc2)N(C)C(=O)[C@@H]2CCCN2C(=O)[C@H](CC(C)C)NC(=O)[C@@H](C)C(=O)[C@H](C(C)C)OC(=O)C[C@@H]1O` (H-T[X32]LP[NMeY](Me); ester 1-C), the GI50 is inactive: 22.7 µM.
With `COC(=O)C(CC(C)C)NC(=O)C(Cc1c[nH]cn1)NC(=O)CNC(=O)C(NC(=O)C(C)NC(=O)C(Cc1c[nH]c2ccccc12)NC(=O)C(CCC(=O)O)NC(=O)C(N)Cc1c(F)c(F)c(F)c(F)c1F)C(C)C` (stereo not given) (H-[Phe(F5)]EWAVGHL-OMe; configuration not given here), the GI50 is inactive: > 12.5 µM.
Take `CCC(C)C1NC(=O)C(NC(=O)C(CC(C)C)N(C)C(=O)[C@@H]2CC(O)CN2)C(C)OC(=O)[C@H](Cc2ccc(OC)cc2)N(C)C(=O)[C@@H]2CCCN2C(=O)[C@H](CC(C)C)NC(=O)C(C)C(=O)[C@H](C(C)C)OC(=O)CC1O` (stereo not given in full) (H-[X29][ξNMeL][ξT][X30]LP[NMeY](Me); ester 3-C): the GI50 is active: 0.0157 µM.
For the compound `O=C(O)C1C=CCN1C(=O)C1C=CCN1C(=O)C1C=CCN1` (stereo not given) (H-[ΔPro]-[ΔPro]-[ΔPro]-OH; configuration not given here), the GI50 is inactive: > 100 µM.
Turning to `CC(OC(C)(C)C)C(NC(=O)C(CCCCNC(=O)OC(C)(C)C)NC(=O)C(Cc1c[nH]c2ccccc12)NC(=O)C(N)Cc1ccccc1)C(=O)NC(Cc1ccccc1)C(=O)N[C@@H]1CCC[C@@H]1C(=O)O` (stereo not given in full) (H-[ξF][ξW][ξK](Boc)[ξT](tBu)[ξF]-X26), the GI50 is inactive: 40.1 µM.
For the compound `CCC(C)C(NC(=O)C(Cc1cccs1)NC(=O)C(CC(C)C)NC(=O)C(CC(C)C)NC(=O)C(CCCCN)NC(=O)C(CCCN=C(N)N)NC(=O)[C@H](Cc1ccc(O)cc1)NC(=O)C(NC(=O)C(C)NC(=O)C(N)CC(C)C)C(C)O)C(=O)NC(CC(C)C)C(N)=O` (stereo not given in full) (H-[ξL][ξA][ξT]Y[ξR][ξK][ξL][ξL][ξ2Thi][ξI][ξL]-NH2), the GI50 was inactive: > 50 µM.
Turning to `NCC(=O)NC1(C(=O)O)CCCC1` (HELM PEPTIDE1{G.[O=C(O)C1(N[*:1])CCCC1]}$$$$V2.0), the GI50 is inactive: > 100 µM.
In the case of `CSCC[C@H](NC(=O)[C@@H](N)CC(N)=O)C(=O)N[C@@H](Cc1c[nH]c2ccccc12)C(=O)N[C@@H](CCC(N)=O)C(=O)N[C@@H](CCC(=O)O)C(=O)N[C@H](C(=O)NCC(=O)N[C@@H](CCCCN)C(=O)N[C@H](C)C(=O)O)C(C)C` (HELM PEPTIDE1{N.M.W.Q.E.V.G.K.[dA]}$$$$V2.0), the GI50 is inactive: > 100 µM.
For `C[C@@H](NC(=O)CNC(=O)OC(C)(C)C)C(=O)N[C@@H](Cc1ccccc1)C(=O)OCc1ccccc1` (HELM PEPTIDE1{[CC(C)(C)OC(=O)[*:2]].G.[dA].F.[c1ccc(CO[*:1])cc1]}$$$$V2.0), the GI50 is inactive: > 100 µM.
Consider `COC(=O)[C@H](Cc1ccc(O)cc1)NC(=O)[C@H](Cc1ccc(O)cc1)NC(=O)OC(C)(C)C` (HELM PEPTIDE1{[CC(C)(C)OC(=O)[*:2]].Y.Y.[CO[*:1]]}$$$$V2.0), for which the GI50 was inactive: > 100 µM.
As for `COc1ccc(CNC(=O)[C@@H]2CCCN2C(=O)[C@@H]2CCCN2C(=O)[C@H](C(C)C)N(C)C(=O)[C@@H](NC(=O)[C@H](C(C)C)N(Cc2ccccc2)Cc2ccccc2)C(C)C)cc1OC` (HELM PEPTIDE1{[CC(C)[C@@H](C(=O)[*:2])N(Cc1ccccc1)Cc1ccccc1].V.[meV].P.P.[COc1ccc(CN[*:1])cc1OC]}$$$$V2.0), the GI50 is inactive: 15.6 µM.
Turning to `CCC(C)[C@@H]1NC(=O)[C@@H]2CCCN2C(=O)C(CC(O)CCl)OC(=O)CCNC(=O)[C@H](C)N(C)C(=O)[C@H](C(C)C)N(C)C1=O` (stereo not given in full) (HELM PEPTIDE1{[CCC(C)[C@H](N[*:1])C(=O)[*:2]].[meV].[meA].[bAla].[O=C(C(CC(O)CCl)O[*:1])[*:2]].P}$PEPTIDE1,PEPTIDE1,1:R1-6:R2$$$V2.0), the GI50 is inactive: > 100 µM.
Regarding `CCC(C)[C@@H]1NC(=O)[C@@H]2CCCN2C(=O)C(CC(O)CO)OC(=O)CCNC(=O)[C@H](C)N(C)C(=O)[C@H](C(C)C)N(C)C1=O` (stereo not given in full) (HELM PEPTIDE1{[CCC(C)[C@H](N[*:1])C(=O)[*:2]].[meV].[meA].[bAla].[O=C(C(CC(O)CO)O[*:1])[*:2]].P}$PEPTIDE1,PEPTIDE1,1:R1-6:R2$$$V2.0), the GI50 was inactive: > 100 µM.
As to `CCCCCC(=O)N[C@H](C(=O)N[C@H](C(=O)N(C)[C@H](C(=O)N1CCC[C@H]1C(=O)N1CCC[C@H]1C(=O)O[C@H](C(=O)N1C(=O)C=C(OC)[C@@H]1Cc1ccccc1)C(C)C)C(C)C)C(C)C)C(C)C` (HELM PEPTIDE1{[CCCCCC(=O)[*:2]].V.V.[meV].P.P.[COC1=CC(=O)N(C(=O)[C@@H](O[*:1])C(C)C)[C@H]1Cc1ccccc1]}$$$$V2.0), the GI50 was inactive: > 100 µM.
Take `O=C(Cc1ccccc1)N[C@@H]1COC(=O)[C@@H]2CCCN2C(=O)[C@@H]2CCCN2C1=O` (HELM PEPTIDE1{[O=C(Cc1ccccc1)[*:2]].[O=C([C@@H](CO[*:3])N[*:1])[*:2]].P.P}$PEPTIDE1,PEPTIDE1,2:R3-4:R2$$$V2.0): the GI50 was inactive: > 100 µM.
